This note sets out measurements from paper PMC5107933.

Amino acid sequences for entries named in this document (tags omitted).
UniProt G1TJL6: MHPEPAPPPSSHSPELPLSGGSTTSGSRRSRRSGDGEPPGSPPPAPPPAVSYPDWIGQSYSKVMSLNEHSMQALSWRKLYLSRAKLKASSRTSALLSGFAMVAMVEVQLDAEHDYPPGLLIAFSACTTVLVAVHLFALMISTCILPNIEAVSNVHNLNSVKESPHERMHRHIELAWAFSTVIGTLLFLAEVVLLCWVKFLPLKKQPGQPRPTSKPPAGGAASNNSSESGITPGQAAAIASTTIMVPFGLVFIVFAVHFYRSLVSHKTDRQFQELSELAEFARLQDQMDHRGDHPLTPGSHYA

Results are given in words; binding and its absence hold for the method and conditions named. Binding seen in cells or lysates may run through a third protein. Some entries that bind do so weakly or less than the wild type.

The assay has as its target Orai1, endogenous in rabbit skeletal muscle triad vesicles (rabbit (endogenous in skeletal muscle triad vesicles)) (UniProt G1TJL6). Put plainly: co-IP; solubilized triad vesicle sample from rabbit skeletal muscle (30 μg of total proteins); immunoprecipitation with anti-Orai1 or anti-MG53 antibody; immunoblot with various antibodies; reaction without antibody as negative control.

B1: Mitsugumin 53 (MG53), endogenous in rabbit skeletal muscle triad vesicles (protein, UniProt Q1XH18 1-477)
chain: MSAAPGLLHQELSCPLCLQLFDAPVTAECGHSFCRACLSRVAGEPAADGTVNCPCCQAPTRPQALSTNLQLARLVEGLAQVPQGHCEEHLDPLSIYCEQDRVLVCGVCASLGSHRGHRLLPAAEAHSRLKTQLPQQKLQLQEASMRKEKSVAVLEHQLTEVEETVRQFRGAVGEQLGKMRVFLAALEGSLDREAERVRSEAGVALRRELGGLHSYLEQLRQMEKVLEEVADKPQTEFLMKYCLVTSRLQKILAESPPPARLDIQLPIISDDFKFQVWRKMFRALMPALEELTFDPSSAHPSLVVSPTGRRVECSEQKAPPAGDDARQFDKAVAVVAQQLLSDGEHYWEVEVGDKPRWALGVMASEASRRGRLHAVPSQGLWLLGLRDGKTLEAHVEAKEPRALRTPERRPTRLGLYLSFGDGVLAFYDASDADALELLFAFRERLPGPVYPFFDVCWHDKGKNAQPLLLVGPDGQEA
Take B1: the binding result is on record as “binds”.
